This is one part of the list.

The source of these data is the antibiotic and cytotoxicity screens of Wong et al. (2023).

The subject of this test is S. aureus RN4220. Nature of the test: growth inhibition call (relative growth <= 0.2). The settings on record: 50 µM.
With `O=C1[C@@H]2[C@H](O)CS[C@@H]2C(=O)N1c1ccccc1`, the growth inhibition call is “inactive”. Next, `C[C@H]1CN([C@@H](C)CO)C(=O)c2cc(NC(=O)Nc3cccc4ccccc34)ccc2O[C@H]1CN(C)Cc1ccc2c(c1)OCO2`: “inactive”; `C[C@@H]1CN([C@H](C)CO)C(=O)c2cc(NC(=O)c3ccccc3)ccc2O[C@@H](C)CCCCO[C@@H]1CN(C)C(=O)C1CCCCC1`: “inactive”; `O=C(C[C@@H]1C[C@H]2c3cc(NC(=O)NC4CCCC4)ccc3O[C@H]2[C@@H](CO)O1)NCc1ccc(-c2ccccc2)cc1`: “inactive”. Regarding `C[C@H]1CCCCO[C@H](CN(C)C(=O)CCCN(C)C)[C@@H](C)CN([C@@H](C)CO)C(=O)c2cc(NC(=O)Nc3cccc4ccccc34)ccc2O1`, the growth inhibition call was “inactive”. Consider `O=C(O)c1cc2c([nH]c1=O)CCC[C@@H]2O`, for which the growth inhibition call is “inactive”. Regarding `C[C@@H]1CCCCO[C@H](CN(C)Cc2ccc(C(F)(F)F)cc2)[C@H](C)CN([C@H](C)CO)C(=O)c2cc(NC(=O)Nc3cccc4ccccc34)ccc2O1`, the growth inhibition call is “inactive”. With `O=C(C[C@@H]1CC=CC[C@H](NC(=O)OCC2c3ccccc3-c3ccccc32)C(=O)OC[C@H](Cc2ccccc2)NC1=O)N[C@H](CO)Cc1ccccc1`, the growth inhibition call is “inactive”. In the case of `C[C@@H]1CN([C@H](C)CO)C(=O)c2cc(NC(=O)Cn3cnnn3)ccc2O[C@H]1CN(C)S(=O)(=O)c1ccc(Cl)cc1`, the growth inhibition call is “inactive”.

Take `C[C@@H]1CCCCO[C@@H](CN(C)C(=O)Nc2ccc(F)cc2)[C@H](C)CN([C@@H](C)CO)C(=O)c2cc(NC(=O)Nc3cccc4ccccc34)ccc2O1`: the growth inhibition call is “inactive”. Next, `C[C@@H]1CN([C@@H](C)CO)C(=O)CCCn2nncc2CO[C@@H]1CN(C)Cc1cccc2c1OCCCO2`: “inactive”.

As for `CS(=O)(=O)Nc1ccc2c(c1)[C@H]1C[C@H](CC(=O)NCC3CC3)O[C@@H](CO)[C@H]1O2`, the growth inhibition call is “inactive”. Next, `CO[C@H]1O[C@@H](COC(C)=O)[C@@H](OC(C)=O)C(C#N)(C#N)[C@@H]1OC(C)=O`: “inactive”. Take `CC(C)NC(=O)Nc1cccc2c1O[C@@H](CN(C)Cc1ccc3c(c1)OCO3)[C@H](C)CN([C@H](C)CO)C2=O`: the growth inhibition call is “inactive”. Consider `COCC(=O)Nc1ccc2c(c1)OC[C@@H](C)N(Cc1ccccc1OC)C[C@H](C)[C@@H](OC)CN(C)C2=O`, for which the growth inhibition call is “inactive”. Next, `C=CC[C@@H](CC(=O)N(CCO)Cc1ccccc1)C(=O)NCCOC(=O)[C@H](CC=C)CC(=O)OC(C)(C)C`: “inactive”; `CC(C)NC(=O)Nc1ccc2c(c1)C(=O)N([C@H](C)CO)C[C@@H](C)[C@H](CN(C)C(=O)NC1CCCCC1)O2`: “inactive”; `C[C@@H]1CN([C@@H](C)CO)C(=O)c2cc(NC(=O)C3CCCCC3)ccc2O[C@@H](C)CCCCO[C@@H]1CN(C)S(=O)(=O)c1ccc(F)cc1`: “inactive”. `COc1ccc(S(=O)(=O)Nc2ccc3c(c2)C(=O)N([C@H](C)CO)C[C@@H](C)[C@H](CN(C)C(=O)Nc2cccc4ccccc24)O3)cc1`: the growth inhibition call was “inactive”. For `C[C@@H]1CN([C@@H](C)CO)S(=O)(=O)c2ccc(Br)cc2O[C@H]1CN(C)C(=O)C1CCOCC1` the value was “inactive”; for `C[C@@H]1CN([C@@H](C)CO)S(=O)(=O)c2ccc(/C=C/c3ccccc3)cc2O[C@@H]1CN(C)C(=O)Nc1cc(F)ccc1F`, “inactive”. As to `C[C@@H]1CN([C@@H](C)CO)C(=O)c2cc(NS(=O)(=O)c3ccc(F)cc3)ccc2O[C@@H]1CN(C)C(=O)Nc1cccc2ccccc12`, the growth inhibition call is “inactive”. Next, `C[C@H]1CN([C@@H](C)CO)C(=O)c2cccc(NC(=O)c3ccncc3)c2O[C@@H]1CN(C)Cc1ccc2c(c1)OCO2`: “inactive”; `CN1CCN(C(=O)[C@H]2[C@H](CO)[C@H]3Cn4c(cccc4=O)[C@@H]2N3S(=O)(=O)c2ccccc2F)CC1`: “inactive”; `Cc1cccc(C)c1NC(=O)[C@@H](C)N`: “inactive”. Consider `C[C@@H]1CN([C@H](C)CO)C(=O)c2cc(NC(=O)Cn3cnnn3)ccc2O[C@H]1CN(C)C(=O)Nc1ccc2c(c1)OCO2`, for which the growth inhibition call is “inactive”. Next, `C[C@H]1CC/C=C\[C@H]2O[C@@]34C=CCN(c5ccc(Cl)cc5)C(=O)[C@H]3N(CCCO)C(=O)[C@]4(C)[C@@H]2C(=O)O1`: “inactive”; `O=C(C[C@H]1C=C[C@H](NC(=O)Cc2ccccn2)[C@H](CO)O1)NCCCN1CCOCC1`: “inactive”; `C[C@@H]1CN([C@H](C)CO)C(=O)c2cc(NC(=O)Nc3cccc4ccccc34)ccc2O[C@H]1CN(C)CC1CCCCC1`: “inactive”. For `COCC#Cc1ccc2c(c1)O[C@H](CN(C)C(=O)CN(C)C)[C@H](C)CN([C@H](C)CO)S2(=O)=O` the value was “inactive”; for `COCC#Cc1cnc2c(c1)C(=O)N([C@@H](C)CO)C[C@@H](C)[C@@H](CN(C)C(=O)c1ccc3c(c1)OCO3)O2`, “inactive”. Next, `C[C@H]1CN([C@@H](C)CO)C(=O)Cc2cc(NC(=O)CCCCCC(=O)Nc3ccccc3N)ccc2O[C@@H]1CN(C)S(C)(=O)=O`: “inactive”; `COc1ccc(NC(=O)N(C)C[C@H]2OCCCC[C@@H](C)Oc3ccc(NC(=O)C4CCCCC4)cc3C(=O)N([C@@H](C)CO)C[C@H]2C)cc1`: “inactive”; `C[C@@H]1CN([C@@H](C)CO)C(=O)c2cc(NC(=O)Nc3ccc(C(F)(F)F)cc3)ccc2O[C@@H]1CN(C)CC1CCCCC1`: “inactive”. Turning to `COc1ccccc1S(=O)(=O)N[C@@H]1CC[C@H](CCNC(=O)C2CC2)O[C@H]1CO`, the growth inhibition call is “inactive”. Next, `C[C@@H]1CN([C@H](C)CO)C(=O)c2cc(NS(=O)(=O)c3ccc(Cl)cc3)ccc2O[C@H]1CN(C)Cc1ccc(C(=O)Nc2ccccc2N)cc1`: “inactive”; `COc1ccc(OCCN2CCC(C(=O)N[C@@H](c3ccc(F)cc3)c3ccc4ccccc4n3)CC2)cc1`: “inactive”. For `NS(=O)(=O)c1ncn(Cc2ccccc2)n1` the value was “inactive”; for `Cc1noc(C)c1NC(=O)Nc1ccc2c(c1)C(=O)N([C@@H](C)CO)C[C@H](C)[C@H](CN(C)S(=O)(=O)c1cccs1)OCCCC[C@H](C)O2`, “inactive”.
